# Data published in publication PMC10668032.
# Some of the results follow. At the low end of the ranking, values are background and their order means little.
# Biological target: SIX1 homeodomain (reference allele) (UniProt Q15475)
# Assay: universal protein binding microarray
# Settings: Universal all-10-mer PBM (8x60K, AMADID 030236), 300 nM GST-tagged protein, Alexa Fluor 488 anti-GST; buffer, salt, pH and temperature not stated; high values mean tight binding; most listed sequences are background and not binding sites; double strand, one strand shown
row,Sequence,binding signal [E-score]
1,AACATTAG,-0.319
2,CCCGTCGC,-0.015
3,GTTGCGGA,-0.119
4,ATAATCAT,0.131
5,CAGGACCA,-0.0298
6,AAAGGGAT,0.253
7,GCGTGCAA,-0.255
8,AGAGGCAT,0.0442
9,GTCATGTA,0.0366
10,ATACGATG,0.277
11,CGCGTTCC,0.0496
12,ACGTAGAA,-0.0543
13,GGGCTGGA,0.0299
14,ACTTCGGC,-0.188
15,CGAGCCGA,-0.0389
16,CTCGGGGA,0.177
17,GATCCAAC,0.274
18,ACGCCGCG,-0.278
19,CTGTCGCC,-0.123
20,ACAGACAT,-0.0243
21,CGCTCAAG,-0.251
22,CAAGTAAC,-0.0823
23,AGTAAGGA,-0.101
24,GGCCACAC,-0.3
25,CCAGGTTC,-0.0107

row,Sequence,binding signal [E-score]
1,ATACTTTC,0.16
2,CTGGACAA,-0.161
3,AAGGGCCA,-0.204
4,ATGGCGTA,0.132
5,AAATAATC,0.0705
6,ACGAGCCG,0.0343
7,CATGGGCA,-0.0172
8,AGTCACAG,-0.0283
9,AACGGAGG,-0.143
10,ATCTATTA,0.0939
11,AAACACTG,-0.033
12,TGAAATAA,-0.0822
13,CAAGCCCA,-0.269
14,AAAGCAAG,-0.272
15,CACTCCCA,-0.0912
16,CGTAGTGC,-0.19
17,CCTTCCGC,-0.0466
18,ACGCAAGT,-0.133
19,CACTTGCC,-0.171
20,ACCGCAAG,-0.0789
21,GTATCGAA,0.43
22,CATATGTA,0.0037
23,GCATTTTA,-0.179
24,AGGCGCTA,-0.0853
25,CAGCAGCA,-0.166

row,Sequence,binding signal [E-score]
1,AAAATCAA,-0.232
2,ATCAGCCA,0.237
3,AACATACT,-0.0268
4,GGTCTCTA,-0.201
5,ACAAAAGC,-0.28
6,CATCCGAA,0.111
7,CCTAGCAC,-0.0628
8,GGGGCGCA,-0.0926
9,GAATGGCC,-0.219
10,CCACGGAA,0.0785
11,GTACATAA,-0.033
12,CTTAAACC,-0.186
13,CGGCTTCA,0.0272
14,ATCGCTTA,0.133
15,ACTGTTTG,-0.214
16,CGCCTCGA,0.0119
17,AGGATTTC,-0.149
18,GTGGAAAA,-0.0804
19,TATCTTCA,0.251
20,ACCTTGGA,-0.314
21,CCGAAATC,0.0113
22,TCAGCGCA,-0.266
23,CTATACTC,0.243
24,AGGATCTC,0.292
25,ATCTGGAG,0.247

row,Sequence,binding signal [E-score]
1,CAGCCCGC,-0.122
2,ACGGCGTA,0.0434
3,ATTCCCCA,-0.07
4,CATCAAAG,-0.0974
5,ACGCTCTA,-0.00944
6,CCTTGAAG,-0.0657
7,ACACAGAG,-0.0351
8,AGGTTGCG,-0.263
9,ACATGTAT,0.226
10,TAACGCCA,0.0447
11,GGTCCTTA,0.0117
12,GGTAAAAA,-0.104
13,CATTACCA,-0.0648
14,CCGGATGC,0.0629
15,CCGGGATC,0.375
16,GCCGCCGC,-0.191
17,CGCTGGTC,-0.168
18,ATCTGCAC,0.118
19,GGCCCCCA,-0.348
20,AGGGGAAA,-0.13
21,ACTAGGAT,0.187
22,GCAGGGTA,0.199
23,GACGAGCA,-0.236
24,ACCCTAGA,0.0547
25,CAGCAAAG,-0.0666

row,Sequence,binding signal [E-score]
1,CGACGGTC,-0.241
2,AACAGTCG,-0.106
3,AAAATCCT,-0.241
4,TAAATGCA,-0.255
5,CCTCCGGA,0.203
6,CTGGACGC,-0.188
7,CTGGATGC,0.00822
8,AGCAGCGC,-0.167
9,TACGACGA,-0.109
10,ACAATGGG,0.0409
11,GTGCCCAA,-0.146
12,GGGGTTCA,0.0958
13,ACCGAGTG,0.027
14,CGCCTGGC,-0.281
15,TCAACCAA,0.0341
16,CGTAATAC,0.256
17,CCTTTCAG,-0.202
18,CGGCATTA,-0.154
19,ACAGACGG,-0.0964
20,AACGCGCA,-0.145
21,ACGGCCGG,-0.045
22,ACAATTGT,-0.107
23,GTCCGAAC,-0.262
24,GCTTTTCA,-0.0932
25,CACAATCC,0.179

row,Sequence,binding signal [E-score]
1,ATAACCCC,0.251
2,AGCCCAGA,0.0639
3,AACTGGCA,-0.129
4,CGTTCCGA,-0.021
5,AAGGCGGC,-0.144
6,GGACGAGA,0.0597
7,ATTTCATC,0.0428
8,AGGAGTCA,0.0248
9,AGGGGATA,0.425
10,GCGACCCC,0.239
11,TGATATCA,0.48
12,TACCCGAA,0.0295
13,GAGAGAAC,-0.068
14,TCAAAACA,-0.102
15,CTTCCCTA,-0.168
16,GAGTGGCC,-0.079
17,TCGCATCA,0.143
18,AAGAGTAA,-0.0905
19,ATTTACTC,-0.0539
20,AGCTCCCT,-0.134
21,GGCTGCAC,-0.131
22,CTCAAAAA,-0.176
23,GCCTAAGC,-0.123
24,ACGGACGG,-0.00363
25,CCCGGAAG,-0.0222

row,Sequence,binding signal [E-score]
1,CCAAAGGC,-0.0887
2,CAATCTTA,-0.192
3,CCAAGATA,0.229
4,AAATACGA,0.119
5,CATCGAGA,0.121
6,AGCCGAAT,0.106
7,TCAAGTGA,-0.00424
8,ATTGCGCC,-0.0314
9,CATCGGAC,0.0036
10,CCTTACTA,-0.0286
11,ATAGGCAT,0.0549
12,CATGGGTA,0.0939
13,AAGGTGGA,0.0838
14,AGACGATG,0.109
15,ACGAGCTC,-0.00935
16,ACACAATC,0.0823
17,CCGACGGC,-0.0727
18,AAAGGGCC,-0.341
19,GCCTCTAA,0.0138
20,TACGGGCA,-0.0221
21,AATACTAC,0.181
22,CAACAATC,0.0604
23,AACAAATC,0.0594
24,AGGATCAT,0.38
25,GTGCTTCA,-0.231

row,Sequence,binding signal [E-score]
1,AAATTAAC,-0.16
2,CCAACGGG,-0.0501
3,TAATAGTA,0.136
4,AGGCATAA,-0.12
5,GTAAGAAA,0.00823
6,AATGCGCT,-0.16
7,ATCTTAAG,0.0288
8,CCTGTACA,-0.075
9,AGCATATG,-0.0476
10,AAGTTATG,-0.149
11,CTTTCGAC,-0.106
12,CGCTGGAA,-0.271
13,ACCCTCAA,-0.0356
14,ATGCGCAG,-0.0035
15,AGTGACTG,-0.32
16,AAACCAGC,-0.0648
17,CCGCAGAG,0.112
18,AACGGCTA,-0.00326
19,CATATAAC,0.113
20,GTAAAGAA,-0.227
21,CGAGGAAG,-0.283
22,TCAAGCCA,-0.0746
23,AGTTTCCA,-0.188
24,TACGGTGA,0.0562
25,ACGATCAA,-0.0514

row,Sequence,binding signal [E-score]
1,TCCAGCCA,-0.179
2,GGGAAACA,-0.0628
3,CAGCTAAA,-0.143
4,AGCCCGCT,-0.145
5,AACACGCC,-0.214
6,ACGCGGAC,-0.242
7,GGTTGCGA,-0.0873
8,ACCCGCCA,0.175
9,AGACGTAC,-0.0313
10,ATAACAAG,0.132
11,AGTCCACA,-0.115
12,CAATGGAG,0.0116
13,GCAGAGGA,0.131
14,ACAAGGGG,0.138
15,GAGCAGTA,-0.038
16,CGTCAATA,-0.00261
17,ATAATATA,0.298
18,GCGTTGAA,-0.0972
19,GAACGAGA,-0.0603
20,GTAGTAGA,-0.00164
21,CGTGCCGA,0.0899
22,ATAAAATG,-0.106
23,ACCATCGA,-0.103
24,AAGTCCGG,-0.18
25,GAGACTGA,-0.0625

row,Sequence,binding signal [E-score]
1,AGGACCCC,-0.0126
2,CCCGGTGA,-0.112
3,AGTCACTA,-0.0779
4,ACTTAAGT,-0.297
5,GAATAAGC,-0.0399
6,AACACCAA,0.227
7,ACTAAATG,0.147
8,ATTTACCA,-0.0681
9,AACACTTC,-0.0464
10,ATTGCTTC,-0.0843
11,AAATCGAG,-0.234
12,ACGGCGTC,-0.159
13,GGCACATA,0.0957
14,ACACTTGG,-0.108
15,CCGAAAAA,-0.0875
16,GGGGCGAC,-0.261
17,TATCCGCA,0.401
18,CGGAAATC,-0.0199
19,CAGACTCG,-0.21
20,TAAAACGA,-0.222
21,CGCGAGGC,-0.191
22,CACGGTGC,-0.042
23,ACTTGTAA,-0.167
24,ATCAAGGC,0.114
25,CTCTGCAG,-0.167

row,Sequence,binding signal [E-score]
1,GGGGTAAA,0.0714
2,CCCAAAGC,-0.222
3,AACTGGTA,0.00825
4,AACCCATC,0.0293
5,TCGCCGCA,-0.156
6,AGACCAGG,0.0214
7,CTTGAGAA,-0.0811
8,AGGTGAAA,-0.216
9,AGTCTTAG,-0.0937
10,CAAATGTC,-0.353
11,GATGGACC,-0.132
12,CGTCTTAA,-0.0169
13,CAGTTTAC,-0.14
14,AACTCGTA,0.0341
15,TCGGGTCA,0.166
16,ATACGAAG,0.199
17,AACCATGG,-0.163
18,TCTGGAAA,-0.0625
19,AATGGCGA,-0.094
20,GCGCACGC,-0.153
21,AATGGGCG,-0.229
22,CCAGACGC,-0.0669
23,CCATAAAC,-0.023
24,CGACGCTC,-0.197
25,GAGATCAA,0.31

row,Sequence,binding signal [E-score]
1,AGTCGTCA,-0.272
2,AACTTGCC,-0.344
3,GCTACGGA,-0.109
4,ACATCACG,-0.178
5,ATGTCGAA,-0.0645
6,CGGACCCA,0.0829
7,ACAAATAG,-0.0412
8,ACATGAAT,0.0158
9,ACGTTAAC,-0.18
10,CACCTGAG,-0.0042
11,AACTTCTT,-0.34
12,CACGTATC,0.433
13,AACGCTGA,-0.263
14,ACGGATGA,0.211
15,ACCGTAAC,-0.146
16,TTGTTAAA,-0.226
17,AAGGATAA,0.167
18,CCCGTGAA,-0.004
19,CAGTTCGG,-0.0792
20,ATCTAGTA,0.158
21,ACTCCACA,-0.0549
22,ATGTTCAG,-0.162
23,AATATGGA,0.158
24,AATAGTTA,-0.171
25,AAAACAAC,-0.36

row,Sequence,binding signal [E-score]
1,CCAATACG,0.129
2,ATCTACGA,0.149
3,CGTTATTC,-0.135
4,AACTCGCC,-0.236
5,CTAGTCAC,-0.188
6,ATCAAGTC,0.0975
7,ACCTTCCG,0.0213
8,CCACGTAG,-0.0535
9,CGATGCCG,0.0279
10,CGTTCAGC,-0.249
11,TCGATGAA,-0.0545
12,CGCCAACG,-0.239
13,TATAGTGA,0.142
14,AGATCCTC,0.329
15,CTCGACCC,0.189
16,AACGGCAC,-0.242
17,AGATCATC,0.344
18,CTGGCAAG,-0.155
19,ACGTAAAA,-0.27
20,CGATCTTA,0.197
21,TCAATACA,0.18
22,AACTACCC,0.0794
23,CTAATCGA,-0.132
24,AGAGTTTA,-0.216
25,AAGCACCC,-0.0301

row,Sequence,binding signal [E-score]
1,GATCCGAA,0.357
2,CGCTCGAA,-0.0589
3,AGCCGCTC,0.00908
4,ACTCTATG,-0.159
5,AGAGGATC,0.366
6,AAGTCCGT,-0.313
7,AAGGTTCG,-0.149
8,CTTCCCCA,-0.143
9,CGTTGCCA,-0.0877
10,ATGCTACC,-0.032
11,GCCGAGTA,-0.0783
12,ACAGAACT,-0.063
13,TAATCCTA,0.215
14,GAAACAAA,-0.292
15,CGTATTAC,0.26
16,GTGCGGTA,0.116
17,AAGTACAT,0.0292
18,CAAAAGAG,0.00419
19,CGAGGCCA,-0.0653
